# Read counts are not given, so values of variants with three or more changes are uncertain.
# B1: LINE1-full (parent)
# chain: UACGUAGGUGGUUUUCCCCUGAUAGUGCUAAGGGGGCCUGGAAGUUUGGACUGGGCAGAGCUCAACACAGCGUGGCAAAGUGGCUGUGGCUAGACUGCCUCUCUGGAUUCCUCGUCACUCAGCAGGGCAUCUCUGAGAGAAAUGCC
# Variants of: B1
# Experiment: self-cleavage, relative activity (ratio to wild type); higher = more cleavage; in vitro, sequencing; the parent is a self-cleaving ribozyme
row,Variant,self-cleavage
1,A30G A64U A136G,0.75
2,G33C A64G A124G,0.14
3,A31G U45C C63U G114U,0.27
4,A30G G49U U132C U134C,1.09
5,U29C C71U U119C,1.88
6,A30G A43U U46C C99A,1.44
7,A30G G72A A140G,0.87
8,A30U G34A A59U A64U U115C A136G,0.47
9,A30C U45C U52C G93C,0
10,A30U U73A A77G,1.42
11,G32U A59C U62C A69G,0
12,A31G A77C G86A,0.12
13,U29C U85C A136G,0.21
14,A30U G60A A79G U109C,0.1
15,G33A A77G U96A,0.1
16,A31U A50G C63U A77G U143A,0.66
17,A30G G35A G106U,1.42
18,U29C U102C A142G,0.88
19,A30G A59U A79G U132A,0
20,A31U A136U A138G,0.68
21,U29C U81C C128U,1.62
22,G32U A57G A79G U134C,0.61
23,U29C U87C A124G U134G,0
24,U29C U62A A129G,0.14

row,Variant,self-cleavage
1,G32A U91A A140G,0.67
2,G32U G49U U132C,0.82
3,A31G U52C G72A,0.79
4,G33A U87A A94G,0.09
5,A30U U45C A59U A67G,0
6,A31G A42G A65G A77G,0
7,A30G U47A U52C,0.29
8,A31G A94G U115A,0
9,A31G A69U U102C,0.06
10,A30G A42G A78U U132C,1.51
11,A31U A57G A67G G72A,0.59
12,A30G C84G U96C U109A A140G,0.15
13,A31U A69U G127U,0.08
14,U29C A43G C71A U96C A138U,0.12
15,G33U A94G U115A,0.26
16,U29C G53A A136G,1.46
17,A30G U52C G127C,1.75
18,A30G A50G G53A A94G A129U A138G,0.29
19,A31U A78G C95U,1.15
20,A30U A43G U112A A138U,1.4
21,U29G U45C G58A,0.26
22,G33U A64G U108C A141C,0
23,A31G G32C U81A U104C,1.78
24,A30G U52A A138G,0

row,Variant,self-cleavage
1,A30U G44A A124U,0.53
2,A30U A78U U100A,1.31
3,A30G U46C U132C,0.46
4,A30G A65U A117U,0.23
5,A30G C37A A57G G126A A138G,1.07
6,A30U G40A U96C G114C,0.04
7,U29C U104A U143C,1.29
8,A30G A69G U143C,0.42
9,A31U A65U U81A,0.22
10,G32A A42U A57C,0.03
11,U29C U85A U100C,0.26
12,U29C A50G U104C C113A,1.69
13,G33A A42U A140G,0.78
14,U29C A42U C51U U102C A142G,1.45
15,A31G A43U A69U A141U,0.04
16,A30G A92U U102C,0.47
17,A30G A92U A136G,0.71
18,U29C A69G U132A,1.18
19,G32A U87A U104A U112A,0.08
20,A30U U47A G48A A94G A117G,0.33
21,U29C A59G A79G,0.4
22,G33A A64G U112A G114A,0.19
23,A31G A42G U96A,0.18
24,U29C A92U A129G A136G,1.02

row,Variant,self-cleavage
1,A30U A124U A140G,0.37
2,A30U U132A A142C,0.54
3,U29C U46C G89A U100C A124U A138G,0.04
4,G32A A117G A136U,1.04
5,G32A A42G U62A,0.12
6,A30G U45C U119C A140G,0
7,A30G G72A A107G U130C,1.96
8,A30G U52C U108A,1.41
9,A31G A42U U52C A69G U130C,0
10,A31U G36A G86A U91A G122A U143C,0.01
11,A30G U73C U134C,2.76
12,A31U U39C A117U,0.93
13,A30U U115C G125A,1.56
14,A30U U39A A136G,1.63
15,G32A U81A A94G G125A A141G,0.31
16,U29C A65G A77U A124U,0
17,A31U A79U A117U A124G,1.88
18,G32A A78G A79U,0.67
19,A31U G54A U109C A121U A142G,0.2
20,A30G U62C U109A U134C,0.07
21,U29G A31G A77U U112A,1.7
22,A31G U39C C51U A64G A77U A79G,0.39
23,U29C A57G U85C,0
24,G32A U47C A69U U81A U119C,0.07

row,Variant,self-cleavage
1,A31U A78G U108C,2.63
2,A31U A57G A64U A142G,0.46
3,A31G G114A A117G U134C,1.28
4,A31U G49A A64G,0.12
5,A31G U45A U96C,0.14
6,G33U U45C A65G,0.09
7,A31U G34A U39C A78G A121G,0.53
8,A31G U47A A64U,0.47
9,A31G A64U A77G U130C,0.24
10,U29C A78U A94G,1.02
11,A30G A59G U130C,0.66
12,G33U U96A U102C,0.35
13,G33A U52C U62A A94G,0.06
14,U29C C101U A124U,0.93
15,U29C G55A G93A A142G U143C,0.04
16,A30U U102C U134A C146U,0.85
17,G32A U39A G125A,1.12
18,A31G U46C U143G,1.25
19,G34A A57G A142G,0.75
20,A31G A42G U81G,1.04
21,A31G G36U U47C A117C G126A,1.26
22,A31U G83A A92U A129U A138U,0.53
23,A30G G32A A129G,2.35
24,U29C A77U U96A C103U,0.04

row,Variant,self-cleavage
1,U29C U73C A92G U134C,0
2,A31C U39C G72A,1.43
3,U29C U39C U134C,0.95
4,U29C G55A A57G A65U A138G,0.08
5,G33U U39C U132A,1.29
6,A30G A129G U130C,0
7,A31G U100C C146U,1.43
8,A30G U96A U104C U112C A141G,0
9,A31G A57U U81A U85C A124U,0.09
10,U29C U47G U73A A78U,1.95
11,G32A A92G A129U A138G,0.05
12,A30G U62A G93A,0.08
13,U29C G40A U134C,1.1
14,U29C A77G U119A,1.64
15,A31U C37A U39C U45C G125A,0
16,G32A A59G U134A,0.01
17,A31G G53C U96C,0.19
18,A31G G33U U73C A77U U85C,0.07
19,A31U U47A G55C,0.19
20,G32U U45A A59G U134C,0.03
21,U29C G70A U73C A121U,0.63
22,A31C U39C C113A U132C A140G,1.39
23,A31G G48A A64U U102C,0.35
24,G33U U91C U130C,1.17

row,Variant,self-cleavage
1,A31U G60A C71G A79G U108C C120A,0.03
2,U29C A50G C68U G86A U119A,0.16
3,G32A A79G U132A,1.44
4,A31U U134C A142G,1.57
5,A30G U102C A107U,1.29
6,G33A A79G A107G C113U A129G,0
7,A30G G32C A77G U87A A140G A142G,0
8,A30G A59U U85C,0.14
9,U29C U108C A124U,2.01
10,U29C U46C A65C,0.24
11,A31G G36A A43G A124U,1.35
12,A30G C68U U102A A117G,1.11
13,A30U G36C A57U A64G U73C U143C,0
14,A31U G40A A136G U143C,1.29
15,A31G C71U U87G U96A U112C G126A U132A,0.02
16,A30G A59G U96A A107G,0.33
17,U29C G40U A92U,0.36
18,G32A U91C A138G,0.99
19,A30U A50G U96A A136G,0
20,U29C U46C A107G,1.36
21,A30U U45C A94G,0.4
22,A30C A43G C123U,2.21
23,G32A U112C A121U,1.84
